Measurements: the supplement of paper PMC3334620
In all, about 33,000 sequences were measured (“E-score (-0.5 to 0.5)”: median about -0.043, highest 2% from about 0.37 on). The list shows a part of the results.

biological target: T1, Upc2 (UniProt Q12151); test: PBM E-score (8-mer binding enrichment) (E-score (-0.5 to 0.5)); higher = stronger / more preferred TF binding; most listed sequences are background and not binding sites; details: protein concentration: 200 nM; construct: GST-full length
T1 sequence: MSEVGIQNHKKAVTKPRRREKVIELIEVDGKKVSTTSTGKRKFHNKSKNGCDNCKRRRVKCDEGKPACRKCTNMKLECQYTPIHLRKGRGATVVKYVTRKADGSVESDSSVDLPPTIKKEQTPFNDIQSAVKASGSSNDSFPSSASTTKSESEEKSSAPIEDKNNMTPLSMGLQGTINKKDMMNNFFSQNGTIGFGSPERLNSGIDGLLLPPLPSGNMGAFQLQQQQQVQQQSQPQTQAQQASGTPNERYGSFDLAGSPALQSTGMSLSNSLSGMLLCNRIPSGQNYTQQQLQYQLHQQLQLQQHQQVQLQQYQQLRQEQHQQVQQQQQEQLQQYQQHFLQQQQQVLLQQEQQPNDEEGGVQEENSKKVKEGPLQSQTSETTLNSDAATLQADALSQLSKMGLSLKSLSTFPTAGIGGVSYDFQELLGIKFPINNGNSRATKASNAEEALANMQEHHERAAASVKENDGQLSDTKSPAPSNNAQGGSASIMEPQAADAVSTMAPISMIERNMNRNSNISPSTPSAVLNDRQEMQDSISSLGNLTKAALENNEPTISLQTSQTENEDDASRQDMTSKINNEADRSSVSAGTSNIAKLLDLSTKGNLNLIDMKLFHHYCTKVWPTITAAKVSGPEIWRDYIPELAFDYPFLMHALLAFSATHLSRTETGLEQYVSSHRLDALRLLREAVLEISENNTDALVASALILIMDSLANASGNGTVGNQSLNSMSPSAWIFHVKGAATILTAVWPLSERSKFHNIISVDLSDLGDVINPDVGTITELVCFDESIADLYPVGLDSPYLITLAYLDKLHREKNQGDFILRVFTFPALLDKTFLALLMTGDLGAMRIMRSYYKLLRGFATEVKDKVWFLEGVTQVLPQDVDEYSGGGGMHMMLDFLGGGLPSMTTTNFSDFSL
Method: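 Universal 'all 10-mer' protein binding microarrays (Agilent AMADID 015681) probed with GST-tagged S. cerevisiae TFs (full-length or DBD) made by in vitro transcription/translation (PURExpress), about 100-200 nM. Bound TF was detected with fluorescent anti-GST. Each ungapped 8-mer (which stands for itself and its reverse complement) is scored by the PBM enrichment score (E-score), a modified Wilcoxon-Mann-Whitney statistic from -0.5 to +0.5, computed with the Universal PBM Analysis Suite. Scale: above 0.35 generally sequence-specific binding.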

Sequence | PBM E-score
ATGGATCG | 0.183
GCTGCTCA | 0.0785
CACAAGAG | -0.123
AGAACTAC | 0.0405
CACCGCTG | -0.0374
GAAGCCAA | -0.241
CTGTACAC | 0.152
ACGTTCAC | 0.139
ACTATAGC | -0.0424
CGGAAATC | 0.0537
CTCGACGC | -0.0193
TAAGATTA | -0.0656
CCAGATGG | -0.225
CCATCTAC | -0.188
AGGTCACG | -0.441
GGTAGGAC | -0.2
ATATTAGC | 0.114
ATAGCGGC | 0.181
CCTAGCAC | -0.0773
AATGACAC | -0.062
CATAGAGA | -0.247
CCGGACAG | -0.0604
ACCACCGC | -0.0688
CAATTACA | -0.0274
AATGGCAA | -0.0905

Sequence | PBM E-score
AGACGCTA | -0.18
CCCGCCTC | -0.099
CCCGGAAG | -0.248
TAGCAAGA | -0.198
ATTTGGAC | -0.108
GCTACTAC | -0.00529
CGGTCATA | 0.0905
AAGCACGT | -0.00226
TACAATGA | -0.0508
GGTGAGGA | 0.0704
CTAAATAA | 0.195
GCAATCAA | -0.205
CCGCGACA | -0.0122
ATTACCCC | -0.0985
AGCCCGGG | -0.251
AATCGCCC | -0.158
AGGATCAT | -0.0772
GCGGGGTA | -0.00335
TCGGACGA | -0.0442
ACTAAAAT | 0.113
AGCAACTG | -0.129
CTATTCCA | -0.206
AATCCAGA | -0.1
ATGCGGCG | 0.134
GTCCTGAA | -0.0301

Sequence | PBM E-score
AACTCGTG | 0.178
AAACTGTT | -0.0522
CTGGACAC | -0.212
AACATTCT | 0.0423
CAGAAGAA | -0.176
AAGTGGAC | -0.173
ATAGTGAG | -0.17
CACATGCA | -0.223
CCCTGTCG | 0.035
AGCCTAAA | -0.0412
ATCAGGTA | -0.14
CACCATGG | -0.185
GTAATCTA | 0.0648
ACGCGCTC | 0.189
ATCTACAA | -0.0666
ACATGCGC | -0.0616
AAGGGGAC | -0.102
TGCTATAA | -0.235
AATAAATT | 0.112
AGCTTCAC | -0.0326
CTTATTCC | -0.321
CGGCGACC | -0.13
TACCTGGA | 0.0724
AAAAGATC | 0.0413
TGAAGTAA | -0.103

Sequence | PBM E-score
ACTTAACC | -0.0376
GAGCTCCC | 0.0615
ATCAGGAG | -0.0081
AGCGCCAC | -0.0209
GTAGATCA | -0.0484
GAGATAAC | -0.0825
GTAAGTAA | 0.038
CGAGTAGC | 0.147
ATACAGAC | 0.199
ATAGAGAC | -0.0831
GTAGGCTA | 0.0529
ATACAACA | 0.0455
ACAAACGG | 0.328
AGAGCTCC | -0.157
ACTCACTA | -0.0131
ATCGGCAG | -0.21
GACAACGA | 0.193
ATCAATAC | 0.15
GAGATGCC | 0.00372
CCCTTATC | -0.205
TAGGTCGA | 0.00219
CTGTGAAC | 0.0799
CTTTAGCC | -0.0131
GGCCCCTA | -0.217
CATCGTGA | 0.0225

Sequence | PBM E-score
ATAGTGGA | -0.11
CGTTCGTC | 0.293
ACGGCTAC | 0.257
CCGGACCC | 0.0459
CAGTTAAG | -0.0502
AAGGACGC | -0.174
ATGAAAAA | -0.0342
AGTTTCAG | -0.0861
ACCGGTCT | -0.347
AAGTGGGT | -0.0744
AAGCGCGT | 0.183
AAGAGTAG | -0.128
ACATTCGC | -0.0105
ACCAACGT | 0.0806
CGTGAAGC | -0.142
TGAGGAAA | -0.136
AATGGCCG | -0.154
ATATCGTG | 0.0382
AAGGAACA | -0.083
GAAGTGCC | -0.085
CGCACATC | 0.0941
CTCTCGTC | 0.0223
TATGCATA | -0.167
CTCAGAGA | -0.141
TGGTTAAA | 0.127

Sequence | PBM E-score
ACTTTCCA | -0.124
CATTTAGA | -0.0343
GGGATTAC | -0.0652
GTCATCCA | -0.265
ATTCGGCC | -0.198
ATAATTAT | 0.245
CCTCTACC | -0.273
ACCTTTCT | 0.0204
ATAAATGC | -0.113
CTTGTGCC | -0.19
GTGAATAA | -0.0516
ATGCTTTG | -0.132
AGGACCCT | -0.191
CGTAAAAA | 0.404
AGACACAA | -0.178
CTCACGGA | -0.0687
ATTGGGAC | -0.218
ACACTGCC | -0.0405
ACAGAGGG | -0.233
ATTGTATC | -0.2
ATCAACCG | -0.0127
CCCCAGGC | -0.391
GATACCAC | -0.0967
ACGAGCTC | 0.404
TGTCTGAA | -0.0557

Sequence | PBM E-score
ACGCGAGT | 0.195
CATAGCAG | -0.264
GGTCGACA | -0.00508
AGATATAG | 0.0375
AGGTCTAG | 0.0781
AAGCAAAC | 0.206
AAGCTTCT | 0.0126
AGTTTTCA | -0.0402
AGGATGGG | 0.00396
ATAGTGTA | -0.0666
GGGATACC | -0.152
CACAAGAA | -0.119
AACTCAGC | -0.133
CGTAGGGA | -0.0318
CAATGAAA | -0.12
AGTAACCG | 0.124
CGTTGGAA | -0.0293
AACATTGC | -0.0421
CCTCCCCA | -0.137
AGCAAGGG | -0.167
GAGCCGGA | -0.147
AAAGAACG | 0.207
